# Experimental data: the supplement of paper PMC8728848
# The other results are listed elsewhere or left out.
# B1: Clrb (Mus musculus) (protein)
# chain: ITGATKTEQIPVNKTYAACPQNWIGVENKCFYFSEYPSNWTFAQAFCMAQEAQLARFDNQDELNFLMRYKANFDSWIGLHRESSEHPWKWTDNTEYNNTIPIRGEERFAYLNNNGISSTRIYSLRMWICSKLNSYSLHCQTPFFPSGTKHHHHHHHHG
# How the values were obtained:
# Test in all cases: glycan array binding signal (z-score within array); higher = stronger binding
# Conditions in all cases: glycan notation: IUPAC condensed, linker removed
# [1] = target: Gal(b1-4)GlcNAc(b1-3)Gal(b1-4)[Fuc(a1-3)]GlcNAc(b1-3)Gal(b1-4)[Fuc(a1-3)]GlcNAc
# Procedure, shortened: (§1)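 From the Consortium for Functional Glycomics database, 3228 arrays were curated, keeping only those whose protein sequence was available. Binding is given as a within-array Z-score averaged across arrays sharing a protein sequence and across linkers. Negative Z-scores can be read as non-binding.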
# [2] = target: Gal(b1-4)GlcNAc(b1-3)GalNAc
# Procedure, shortened: as §1
# [3] = target: Gal(b1-4)GlcNAc(b1-3)[Fuc(a1-3)GlcNAc(b1-6)]Gal(b1-4)Glc
# Procedure, shortened: as §1
# [4] = target: Gal(b1-4)GlcNAc(b1-3)[Gal(b1-4)GlcNAc(b1-6)]Gal(b1-4)GlcNAc
# Procedure, shortened: as §1
# [5] = target: Gal(b1-4)GlcNAc(b1-3)[GlcNAc(b1-6)]Gal(b1-4)GlcNAc
# Procedure, shortened: as §1
# [6] = target: Gal(b1-4)GlcNAc(b1-6)Gal(b1-4)GlcNAc
# Procedure, shortened: as §1
# [7] = target: Gal(b1-4)GlcNAc(b1-6)GalNAc
# Procedure, shortened: as §1
# [8] = target: Gal(b1-4)GlcNAc(b1-6)[Gal(b1-3)]GalNAc
# Procedure, shortened: as §1
# [9] = target: Gal(b1-4)GlcNAc(b1-6)[Gal(b1-4)GlcNAc(b1-3)]GalNAc
# Procedure, shortened: as §1
# [10] = target: Gal(b1-4)GlcNAc6P
# Procedure, shortened: as §1
# [11] = target: Gal(b1-6)Gal
# Procedure, shortened: as §1
# [12] = target: Gal3S(b1-3)GalNAc
# Procedure, shortened: as §1
# [13] = target: Gal3S(b1-3)GlcNAc
# Procedure, shortened: as §1
# [14] = target: Gal3S(b1-3)[Fuc(a1-4)]GlcNAc
# Procedure, shortened: as §1
# [15] = target: Gal3S(b1-4)Glc
# Procedure, shortened: as §1
# [16] = target: Gal3S(b1-4)Glc6S
# Procedure, shortened: as §1
# [17] = target: Gal3S(b1-4)GlcNAc
# Procedure, shortened: as §1
# [18] = target: Gal3S(b1-4)[Fuc(a1-3)]Glc6S
# Procedure, shortened: as §1
# [19] = target: Gal3S(b1-4)[Fuc(a1-3)]GlcNAc
# Procedure, shortened: as §1
# [20] = target: Gal3S(b1-4)[Fuc(a1-3)]GlcNAc6S
# Procedure, shortened: as §1
# [21] = target: Gal3S4S(b1-4)GlcNAc
# Procedure, shortened: as §1
# [22] = target: Gal3S6S(b1-4)GlcNAc
# Procedure, shortened: as §1
# [23] = target: Gal3S6S(b1-4)GlcNAc6S
# Procedure, shortened: as §1
# [24] = target: Gal4S(b1-4)GlcNAc
# Procedure, shortened: as §1
# [25] = target: Gal4S6S(b1-4)GlcNAc
# Procedure, shortened: as §1
# [26] = target: Gal6P(b1-4)GlcNAc
# Procedure, shortened: as §1
# [27] = target: Gal6S(b1-3)GlcNAc
# Procedure, shortened: as §1
# [28] = target: Gal6S(b1-3)GlcNAc6S
# Procedure, shortened: as §1
# [29] = target: Gal6S(b1-4)Glc
# Procedure, shortened: as §1
# [30] = target: Gal6S(b1-4)Glc6S
# Procedure, shortened: as §1
# [31] = target: Gal6S(b1-4)GlcNAc
# Procedure, shortened: as §1
# [32] = target: Gal6S(b1-4)GlcNAc6S
# Procedure, shortened: as §1
# [33] = target: GalNAc(a1-3)Gal
# Procedure, shortened: as §1
# [34] = target: GalNAc(a1-3)GalNAc
# Procedure, shortened: as §1
# [35] = target: GalNAc(a1-3)GalNAc(a1-3)Gal(a1-4)Gal(b1-4)GlcNAc
# Procedure, shortened: as §1
# [36] = target: GalNAc(a1-3)GalNAc(b1-3)Gal(a1-4)Gal(b1-4)Glc
# Procedure, shortened: as §1
# [37] = target: GalNAc(b1-3)Gal
# Procedure, shortened: as §1
# [38] = target: GalNAc(b1-3)Gal(a1-4)Gal(b1-4)GlcNAc
# Procedure, shortened: as §1
# [39] = target: GalNAc(b1-3)Gal(a1-4)Gal(b1-4)GlcNAc(b1-3)Gal(b1-4)Glc
# Procedure, shortened: as §1
# [40] = target: GalNAc(b1-3)Gal(a1-6)Gal(b1-4)Glc
# Procedure, shortened: as §1
# [41] = target: GalNAc(b1-3)GalNAc
# Procedure, shortened: as §1
# [42] = target: GalNAc(b1-3)GlcNAc
# Procedure, shortened: as §1
# [43] = target: GalNAc(b1-4)Gal(b1-4)Glc
# Procedure, shortened: as §1
# [44] = target: GalNAc(b1-4)GlcNAc
# Procedure, shortened: as §1
# [45] = target: GalNAc(b1-4)GlcNAc(b1-2)Man
# Procedure, shortened: as §1
binder,measurement,setting,value
B1,glycan array binding signal (z-score),[1],-0.386
same,glycan array binding signal (z-score),[2],-0.288
same,glycan array binding signal (z-score),[3],-0.386
same,glycan array binding signal (z-score),[4],-0.387
same,glycan array binding signal (z-score),[5],5.13
same,glycan array binding signal (z-score),[6],-0.431
same,glycan array binding signal (z-score),[7],0.933
same,glycan array binding signal (z-score),[8],-0.241
same,glycan array binding signal (z-score),[9],-0.272
same,glycan array binding signal (z-score),[10],-0.237
same,glycan array binding signal (z-score),[11],-0.443
same,glycan array binding signal (z-score),[12],-0.054
same,glycan array binding signal (z-score),[13],-0.267
same,glycan array binding signal (z-score),[14],-0.389
same,glycan array binding signal (z-score),[15],-0.124
same,glycan array binding signal (z-score),[16],-0.129
same,glycan array binding signal (z-score),[17],-0.071
same,glycan array binding signal (z-score),[18],0.329
same,glycan array binding signal (z-score),[19],-0.343
same,glycan array binding signal (z-score),[20],-0.153
same,glycan array binding signal (z-score),[21],-0.119
same,glycan array binding signal (z-score),[22],-0.099
same,glycan array binding signal (z-score),[23],-0.067
same,glycan array binding signal (z-score),[24],-0.31
same,glycan array binding signal (z-score),[25],-0.101
same,glycan array binding signal (z-score),[26],-0.424
same,glycan array binding signal (z-score),[27],-0.35
same,glycan array binding signal (z-score),[28],-0.357
same,glycan array binding signal (z-score),[29],-0.162
same,glycan array binding signal (z-score),[30],-0.472
same,glycan array binding signal (z-score),[31],0.05
same,glycan array binding signal (z-score),[32],-0.187
same,glycan array binding signal (z-score),[33],0.67
same,glycan array binding signal (z-score),[34],-0.464
same,glycan array binding signal (z-score),[35],-0.541
same,glycan array binding signal (z-score),[36],-0.444
same,glycan array binding signal (z-score),[37],-0.36
same,glycan array binding signal (z-score),[38],2.59
same,glycan array binding signal (z-score),[39],-0.447
same,glycan array binding signal (z-score),[40],-0.023
same,glycan array binding signal (z-score),[41],-0.312
same,glycan array binding signal (z-score),[42],-0.506
same,glycan array binding signal (z-score),[43],-0.109
same,glycan array binding signal (z-score),[44],3.73
same,glycan array binding signal (z-score),[45],1.14
